Drawing on PubChem BioAssay AID488969 (Vanderbilt High Throughput Screening Facility, 2010), this text covers z-score for 69 molecules.

Whole data set: some 110,000 compounds, median “z-score” near -0.1, cut for the highest 2% near 2. The list shows a part of the results. Activity calls are given as the source filed them.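 Rule for the calls: active = z-score in the third read window above 3 or below -3; inactive = the rest.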

The assay deals with Metabotropic glutamate receptor 8 (Rattus norvegicus) (UniProt P70579). Kind of assay: mGluR8 Gi/Go-coupled signaling modulation – cell-based, rat, thallium flux, HTS, primary screen (AID 488969). As to conditions: HEK293 rat mGluR8, GIRK (G protein-gated inwardly rectifying potassium channel) thallium flux, FluoZin2; at 10 µM; stronger effect = higher value; submaximal glutamate (EC20) added with thallium.
UniProt P70579, sequence (P70579 whole entry, looked up): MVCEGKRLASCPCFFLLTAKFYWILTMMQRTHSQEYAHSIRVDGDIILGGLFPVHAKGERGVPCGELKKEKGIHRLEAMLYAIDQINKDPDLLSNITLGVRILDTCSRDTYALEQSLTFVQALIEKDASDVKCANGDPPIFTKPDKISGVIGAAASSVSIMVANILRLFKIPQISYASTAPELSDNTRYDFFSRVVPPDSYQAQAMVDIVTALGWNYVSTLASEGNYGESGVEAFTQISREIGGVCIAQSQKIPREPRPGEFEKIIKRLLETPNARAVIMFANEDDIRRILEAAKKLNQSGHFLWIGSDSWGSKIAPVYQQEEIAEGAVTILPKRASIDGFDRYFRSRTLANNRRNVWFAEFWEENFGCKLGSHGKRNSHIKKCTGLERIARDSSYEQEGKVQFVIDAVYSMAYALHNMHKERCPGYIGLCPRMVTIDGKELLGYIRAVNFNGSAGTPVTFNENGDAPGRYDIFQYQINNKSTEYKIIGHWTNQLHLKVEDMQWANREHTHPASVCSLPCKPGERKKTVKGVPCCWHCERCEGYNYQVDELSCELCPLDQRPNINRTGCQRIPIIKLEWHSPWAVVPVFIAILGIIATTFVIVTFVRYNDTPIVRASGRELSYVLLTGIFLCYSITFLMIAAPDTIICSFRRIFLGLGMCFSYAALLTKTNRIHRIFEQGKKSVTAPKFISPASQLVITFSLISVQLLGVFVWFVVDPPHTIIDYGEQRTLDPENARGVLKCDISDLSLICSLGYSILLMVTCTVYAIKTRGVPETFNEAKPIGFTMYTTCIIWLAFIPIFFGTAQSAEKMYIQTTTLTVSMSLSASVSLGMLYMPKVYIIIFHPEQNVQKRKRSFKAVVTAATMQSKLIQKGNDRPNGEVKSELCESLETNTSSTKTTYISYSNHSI
`CC(C)N(Cc1nc(-c2ccccc2)no1)C(=O)CN1C(=O)c2ccccc2C1=O` displayed a z-score of -0.186. The value for `CCn1nnnc1SCC(=O)Nc1sc(C)c(C)c1C#N` was -0.175.

For the molecule `Nc1cc(Cl)ccc1Oc1ccc2ccccc2c1`, the z-score was -0.263. The value for `COC(=O)Cc1cnc(NC(=O)C2C3CCC(C3)C2C(=O)O)s1` (centres undefined) was -0.1.

The molecule `Cc1ccccc1NC(=O)C1(NC(=O)c2cccc(N3C(=O)CSC3c3ccccc3)c2)CCCCC1` (centres undefined) yielded a z-score of -0.0547. The value for `O=C(NCCCN=C1NS(=O)(=O)c2ccccc21)c1ccncc1` was 0.0475. The value for `Cc1cccc(N2CCN(C(=O)Cn3c(=O)[nH]c4ccsc4c3=O)CC2C)c1` (centres undefined) was 1.5; that for `Fc1ccccc1OCCSc1nnnn1-c1ccccc1` was -0.0995; that for `CCOc1nc(SC(C(C)=O)C(=O)Nc2ccccc2)nc(N(C)C)n1` (centres undefined) was -0.49. For the molecule `CCOC(=O)Cc1csc(NC(=S)NC(=O)c2ccccc2Br)n1`, the z-score was active: 7.57.

The molecule `CN(C1CCCCC1)S(=O)(=O)c1ccc2c(c1)c(=O)c(C(=O)N1CCc3ccccc3C1)cn2C` registered a z-score of -1.33. For `Cc1cc(C(=O)Cn2nnc3ccccc3c2=O)c(C)n1-c1c(C)n(C)n(-c2ccccc2)c1=O`, the z-score is -0.0483.

Consider `O=C(CNC(=O)c1ccco1)NCC(=O)OC(C(=O)c1ccccc1)c1ccc(Cl)cc1` (centres undefined), for which the z-score was -0.478. The value for `O=C(CSc1nc(Cc2ccccc2)nc2ccccc12)c1ccc2c(c1)OCCO2` was 0.362; that for `CC(=O)N/C(=C/c1ccccc1)C(=O)N1CCCCC1` was -0.553. In turn, `Cc1ccc(NC(=O)CSc2nnc(-c3cccnc3)s2)cc1` yielded a z-score of 0.0647.

`Cc1cc(C(=O)NCC2CCCO2)n(-c2ccccc2)n1` (centres undefined) returned a z-score of -0.204. In the case of `COc1cc(C)nc(NC(=O)COc2ccc(Cl)cc2C)n1` it was 0.561; in that of `O=C(CSc1nc2ccccc2n1CCc1ccccc1)NC1CCS(=O)(=O)C1` (centres undefined), 2.39. Consider `CCOC(=O)c1cc(-c2ccccc2)sc1NC(=O)CSc1nncs1`, for which the z-score stood at 0.159. In the case of `CC1CCN(S(=O)(=O)c2cn(C)c(=O)n(C)c2=O)CC1` it was 0.249; in that of `COc1ccc(O)c(C(=O)c2cnc3nc4ccccc4n3c2)c1`, 0.523. The value for `CC(=O)N1CCc2cc(S(=O)(=O)NCCC3=CCCCC3)ccc21` was -0.284. Turning to `CCCC(=O)C1=C(O)C(C(=O)OC)C(C)(C)CC1=NC(C)C` (centres undefined), the z-score is 0.0232.

Consider `CCOC(=O)C1CCN(C(=O)C2CCN(S(=O)(=O)c3c(C)noc3C)CC2)CC1`, for which the z-score was -0.0645. Molecule `O=C1C2C3C=CC(c4ccccc4)(C2C(=O)N1c1cccc(Cl)c1)C1C(=O)N(c2cccc(Cl)c2)C(=O)C31` (centres undefined) displayed a z-score of 0.0233.

On to `CCC(=O)Nc1cccc(NC(=S)NC(=O)c2ccc(Cl)cc2Cl)c1`, for which the z-score was 0.0528. `COc1ccc(/C=N/NC(=O)c2csc(-n3nc(C)cc3C(F)(F)F)n2)cc1` had a z-score of -0.25. In the case of `c1ccc(C(c2ccccc2)N2CCN(c3nc4ccccc4n4cnnc34)CC2)cc1` it was -0.222; in that of `O=c1oc2ccccc2c2c1SC(C(F)(F)F)C2` (centres undefined), -0.38; in that of `FC(F)(F)c1cc(-c2ccc(Cl)cc2)nc2ncnn12`, -0.345. The value for `CCN(Cc1nc2cc(OC)c(OC)cc2c(=O)[nH]1)C(=O)c1ccc(S(=O)(=O)N(C)C)cc1` was 0.224; that for `CC(C)N=c1scc(-c2cccs2)n1/N=C/c1ccc(O)c(O)c1O` was active: 4.07. In turn, `CCC(C)(C)NCC(=O)Nc1ccc(OC(F)(F)F)cc1` returned a z-score of 0.686.

Molecule `COCCCNC(=O)/C(=C\c1cccn1C)NC(=O)c1cccs1` gave a z-score of 0.0671. The value for `CS(=O)(=O)c1ccccc1-c1nc(-c2ccc(C(F)(F)F)cc2)no1` was 0.192; that for `Cc1ccc(C)n1NC(=O)c1cccc(Cl)c1` was -0.0187. Molecule `CCc1cccc(CC)c1NC(=O)CN1CC(C)SC1=NC1CCCCC1` (centres undefined) showed a z-score of 0.24. In the case of `O=C(CSc1nnc2ccccn12)c1ccccc1` it was 0.709.

Molecule `CN(C)C(=O)c1ccc(NC(=O)c2ccccc2Sc2ccccc2C#N)cc1` registered a z-score of -0.228.

Regarding `COc1ccc(NC(C)=O)cc1NC(C)C(=O)Nc1cc(C(F)(F)F)ccc1N1CCOCC1` (centres undefined), the z-score was -0.963.

Regarding `Cc1ccc(C(=O)Nc2nnc(-c3ccc(C(C)(C)C)cc3)s2)cc1`, the z-score was -1.03. As to `CCOC(=O)C1CCN(C(=O)COc2ccc(S(=O)(=O)NC(C)C)cc2Cl)CC1`, the z-score is -0.688. As for `O=C(Nc1ccc2c(c1)OCO2)C1CCCCN1S(=O)(=O)c1ccccc1` (centres undefined), the z-score worked out at 0.395. On to `CCc1noc(C)c1C(=O)Nc1ncc(C)s1`, for which the z-score was -0.483. The value for `Cc1nc(NC(=O)c2ccc(-c3cc4ccccc4oc3=O)cc2)ccc1Br` was -0.171; that for `COc1cccc(CN2C(=O)c3cccc(N)c3C2=O)c1` was -0.546; that for `NS(=O)(=O)c1cccnc1Nc1cccc(C(F)(F)F)c1` was -0.118. `O=c1c2cccnc2[nH]c(=S)n1CCCN1CCN(c2ccc(F)cc2)CC1`: the z-score came out at 0.723. The value for `COC(=O)NNC(=O)C12CC3CC(CC(C3)C1)C2` was -0.252; that for `O=C(NCc1cc(C(F)(F)F)cc(C(F)(F)F)c1)C1CC(c2cccc([N+](=O)[O-])c2)=NO1` (centres undefined) was 0.044. In turn, `N#Cc1nc(Cc2ccccc2)oc1N1CCN(c2ccccc2)CC1` showed a z-score of 0.123. Consider `COc1ccc(C(C)=O)cc1COC(=O)Cc1n[nH]c(=O)c2ccccc12`, for which the z-score is -0.504. `CCOC(=O)CSc1nnc(Cc2ccccc2)n1Cc1ccco1` displayed a z-score of 0.297. In the case of `Cc1cc(C)cc(OCC(=O)OCC(=O)Nc2ccc(Cl)cn2)c1` it was 0.582.

`COc1cccc(OCC(O)CN2CCN(CCO)CC2)c1` (centres undefined) gave a z-score of 0.428. Consider `Cc1ccc2nsnc2c1S(=O)(=O)NCc1cccnc1`, for which the z-score is -0.00044. The value for `CC(=O)C1=C(O)C(=O)N(c2ccc(C(=O)O)cc2)C1c1ccccc1` (centres undefined) was -0.312; that for `Cc1sc(-c2ccccn2)nc1OC(=O)c1ccc(Cl)c(Cl)c1` was 0.0343.

For `C=CCn1c(Cc2cccs2)nnc1SC/C=C/c1ccccc1`, the z-score was -1.31. In the case of `Cc1cccc(OCCC(=O)Nc2ccc(C)c(S(=O)(=O)N3CCCCC3)c2)c1` it was -0.857. With `Cc1cc(Cl)c(S(=O)(=O)Nc2ccon2)cc1OCC(=O)NC1CCCCC1`, the z-score was -0.226. Consider `Cc1[nH]nc2c1C(Cc1ccccc1)C(C#N)=C(N)O2` (centres undefined), for which the z-score is -0.192. Turning to `Cc1ccc(S(=O)(=O)N2CCCC2C(=O)N2CCCCCC2)cc1` (centres undefined), the z-score was 0.624.

Molecule `COC(=O)c1cc2sccc2n1CC(=O)Nc1cc(OC)cc(OC)c1` showed a z-score of -0.244. In the case of `CCOC(=O)C1CCN(C(=O)Nc2ccc3nc(C)c(C)nc3c2)CC1` it was -0.346; in that of `O=C(CSc1nncs1)Nc1ccc(Cl)cn1`, 0.879. The value for `CC(=O)Oc1ccc(C(=O)Nc2ccccc2C(=O)NCC(C)C)cc1` was -0.069; that for `CCCn1nc2cc(C(=O)NCc3ccc(OC)cc3)ccc2c1OCC` was -0.298.
